Reference: PubChem BioAssay AID686970 (National Center for Advancing Translational Sciences (NCATS), 2013)
Among all 360,000 compounds or so, about 6,000 (1.7%) were called active. This list was built around the results that the source calls inconclusive (neither active nor inactive); the mix of calls is not that of the screen. Calls come from the whole dose curve; as a rule, active = well fitted cell-killing curve with a large enough effect; inconclusive = small, poorly fitted or top-dose-only effect, or effect the other way; inactive = flat fitted curve, though single readings scatter. Potencies of inconclusive entries are left out as doubtful fits.

Assay: qHTS for induction of synthetic lethality in tumor cells producing 2HG: qHTS for the HT-1080-NT fibrosarcoma cell line;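 note: NT is the 2HG producing partner of a matched IDH1 knockdown line; nearly all actives have a fitted effect of over 55% in size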;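 for activity, negative = less viability: 0% = DMSO-treated cells and -100% = media-only wells without cells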
Settings: HT-1080-NT fibrosarcoma viability, CellTiter-Glo ATP luminescence, 48 h; activity, negative = less viability: at 46.1 µM (top of the series) unless noted
How it was run: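 A 48-hour cytotoxicity screen used HT-1080-NT cells plated 2 hours before compound delivery. ATP-based CellTiter-Glo luminescence measured viability, normalized to DMSO and no-cell controls.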
Potency is the fitted concentration of half-maximal effect; tags give direction and shape of the fitted curve.

Q: With CN1CCN(c2ccc(CNS(=O)(=O)Cc3cccc(C(F)(F)F)c3)cc2)CC1 as the compound, how does the Potency read?
A: active: 18.4 µM

Q: Which Potency does the source give for COc1ccc(-c2nn(-c3ccccc3)cc2C(=O)NC(=S)N2CCOCC2)cc1OC here?
A: inconclusive [cytotoxic, single point]

Q: Which Potency does the source give for O=C(CCl)N1CCN(S(=O)(=O)c2ccc3c(c2)CCC3)CC1 here?
A: inconclusive [cytotoxic, single point]

Q: With O=C(O)C1=CCNCC1 as the compound, how does the activity, negative = less viability read?
A: inconclusive: 5.55%

Q: Which Potency does the source give for OC1(C#Cc2c(-c3ccsc3)oc3ccc(N4CCOCC4)cc23)CCCCC1 here?
A: inconclusive [cytotoxic, single point]

Q: With COc1ccc(S(N)(=O)=O)cc1C(=O)NNC(=O)C1COc2ccccc2O1 (stereo not drawn) as the compound, how does the “activity, negative = less viability” value read?
A: inactive: 2.44%

Q: With Cc1cc2c(cc1S(=O)(=O)N1CC(C)CC(C)C1)OCC(=O)N2 (stereo not drawn) as the compound, how does the Potency read?
A: inconclusive [rising, single point]

Q: For COC(=O)[C@]12CCCCC=C1N(Cc1cccc3ccccc13)C(=O)[C@H](CC(=O)N1CCCCC1)C2, which Potency is on record?
A: inconclusive [cytotoxic, single point]

Q: With CCc1nnc(NS(=O)(=O)c2ccc(NC(=O)c3ccc([N+](=O)[O-])s3)cc2)s1 as the compound, how does the Potency read?
A: inconclusive [cytotoxic, single point]

Q: Which Potency does the source give for O=C(Nc1ccc(F)cc1)c1cnc(-c2ccccc2)nc1-c1ccccc1 here?
A: inconclusive [cytotoxic, full curve]

Q: Which Potency does the source give for CC(=O)c1cccc(NS(=O)(=O)c2ccc(-c3cnc(C4CC4)o3)cc2)c1 here?
A: active: 20.6 µM

Q: Which Potency does the source give for CCOC(=O)/C(=N\Nc1ccc(C(C)=O)cc1)c1csc(Nc2ccccc2)n1 here?
A: active: 16.4 µM

Q: With CCCn1cc(NC(=O)c2cc(-c3ccccc3)on2)cn1 as the compound, how does the Potency read?
A: inconclusive [cytotoxic, single point]

Q: With COc1ccc(C(=O)NCCCC2CCCC2)cc1OC1CCN(C(C)C)CC1 as the compound, how does the Potency read?
A: inconclusive [cytotoxic, single point]

Q: With COc1cccc(/C=N/NC(=O)c2ccc(-c3ccccc3)cc2)c1O as the compound, how does the Potency read?
A: inconclusive [cytotoxic, partial curve]

Q: With C[N+]1(C)CCC(=C2c3ccccc3CC(=O)c3sccc32)CC1 as the compound, how does the “activity, negative = less viability” value read?
A: inactive: -20.9%

Q: With Cc1ccc(-n2nc3c(=O)n(CC(=O)NCc4ccccc4)nc(C)c3c2C)cc1 as the compound, how does the “activity, negative = less viability” value read?
A: inactive: 15.8%

Q: For O=C(Cc1cccs1)N1CCC(c2nc3c(nnn3Cc3ccccc3Cl)c(=O)[nH]2)CC1, which Potency is on record?
A: inconclusive [cytotoxic, single point]

Q: For C/C(=N\Nc1nc2ccccc2s1)c1cccs1, which Potency is on record?
A: inconclusive [cytotoxic, single point]

Q: For Cn1c(CN2CCCC2)nc2cc(NC(=O)c3ccc(Cl)cc3)ccc21, which Potency is on record?
A: inconclusive [cytotoxic, single point]

Q: Which activity, negative = less viability does the source give for Cc1cc(C)c2cc(C#N)c(SCC(=O)Nc3cc(C)on3)nc2c1 here?
A: inconclusive: 44.3%

Q: With CCOc1cc(N2CCOCC2)c(OCC)cc1NC(=O)CSc1ccccc1C(=O)O as the compound, how does the “activity, negative = less viability” value read?
A: inactive: -0.593%

Q: For CCOC(=O)C1=CN(Cc2cccc(F)c2)S(=O)(=O)N(C)C1c1ccc2ccccc2c1 (stereo not drawn), which “activity, negative = less viability” value is on record?
A: inactive: 3.49%

Q: With Cc1ccc(F)cc1-c1cc(C(=O)NCc2cc(C(F)(F)F)cc(C(F)(F)F)c2)[nH]n1 as the compound, how does the Potency read?
A: inconclusive [cytotoxic, single point]

Q: With Cc1ccc(S(=O)(=O)/N=C2/NC(=O)/C(=C/c3ccccc3)S2)cc1 as the compound, how does the Potency read?
A: inconclusive [cytotoxic, partial curve, poor fit]

Q: For CCNc1nc(SCC(=O)Nc2ccc(Cl)c(Cl)c2)nc(N2CCOCC2)n1, which Potency is on record?
A: inconclusive [cytotoxic, full curve, poor fit]

Q: With Cc1nc2ccc(NC(=O)Cc3ccc(Br)cc3)cc2s1 as the compound, how does the activity, negative = less viability read?
A: inconclusive: -2.77% [cytotoxic]

Q: Which Potency does the source give for COc1ccc(-c2nc3cc(C)c(Br)c(C)n3c2Cc2cccc(F)c2)cc1OC here?
A: inconclusive [cytotoxic, single point]

Q: With Cc1cccc(C(=O)NC(=S)Nc2cccc3nc(C)ccc23)c1 as the compound, how does the “activity, negative = less viability” value read?
A: inactive: 0.561%

Q: Which Potency does the source give for COc1cc(Cn2c(-c3nonc3N)nc3ccccc32)ccc1C here?
A: active: 3.66 µM

Q: Which activity, negative = less viability does the source give for COc1ccc(C(C)=O)cc1COC(=O)c1cc2ccccc2cc1O here?
A: inconclusive: -22.5% [cytotoxic]

Q: Which Potency does the source give for Cc1cc(C)nc(Nc2nc(C(N)CCc3ccccc3)cs2)n1 (stereo not drawn) here?
A: inconclusive [cytotoxic, single point]

Q: With c1ccc2c(c1)[nH]c1c(N3CCN(C4CCCCC4)CC3)ncnc12 as the compound, how does the Potency read?
A: inconclusive [cytotoxic, single point]

Q: With Cc1nc(NC(C)c2ccccc2)c2oc3ccccc3c2n1 (stereo not drawn) as the compound, how does the “activity, negative = less viability” value read?
A: inactive: -15.5%

Q: Which Potency does the source give for O=S(=O)(NCC1CCCO1)c1ccc(S(=O)(=O)N(Cc2ccccc2F)C2CCCCC2)cc1 (stereo not drawn) here?
A: inconclusive [cytotoxic, single point]

Q: Which Potency does the source give for COc1ccc(C(C[N+](=O)[O-])c2c(C)cc3ccccn23)cc1 (stereo not drawn) here?
A: inconclusive [cytotoxic, single point]

Q: For CCOC(=O)[C@]12CCC=C1N(Cc1cccc3ccccc13)C(=O)[C@H](CC(=O)NCC1CCCCC1)C2, which Potency is on record?
A: inconclusive [cytotoxic, single point]

Q: Which Potency does the source give for Cc1ccc(C(=O)O/N=C(\N)c2ccc(C(F)(F)F)cn2)cc1 here?
A: inconclusive [rising, single point]

Q: Which Potency does the source give for CC1(Cc2ccccc2OC(F)(F)F)C(=O)Nc2cc(-c3ccccc3Cl)ccc21 (stereo not drawn) here?
A: inconclusive [cytotoxic, single point]

Q: For O=C(c1ccc(-c2ccc([N+](=O)[O-])cc2)o1)N1CCCCCCC1, which Potency is on record?
A: inconclusive [cytotoxic, single point]

Q: With COc1ccc(-c2cc(NC=O)c3ncc(-c4ccc(C(C)=O)cc4)n3c2)cn1 as the compound, how does the Potency read?
A: inconclusive [cytotoxic, full curve]

Q: Which “activity, negative = less viability” value does the source give for CCCNC(=O)C1(C)CCCN(Cc2cccn2C)C1 (stereo not drawn) here?
A: inactive: 2.6%

Q: Which “activity, negative = less viability” value does the source give for CCN(CC)C(=O)C1=C(C)N(Cc2ccc(C(C)(C)C)cc2)C(=O)C(CC(=O)NC2CCCC2)C1 (stereo not drawn) here?
A: inactive: -2.83%

Q: Which activity, negative = less viability does the source give for Cc1c(NC(=O)c2ccc3c(c2)OCO3)c(=O)n(-c2ccccc2)n1C here?
A: inconclusive: -34% [cytotoxic]

Q: Which Potency does the source give for C/C(=N\N=C(/N)SC1CC(=O)N(c2ccccc2)C1=O)c1cccs1 (stereo not drawn) here?
A: inconclusive [cytotoxic, single point]

Q: With COc1ccc(NC(=O)CSc2nc3ccc(OC)cc3[nH]2)cc1 as the compound, how does the “activity, negative = less viability” value read?
A: inactive: 0.243%

Q: With O[C@@H]1CN(Cc2cccs2)[C@@H](c2ccc(Cl)cc2)C[C@H]1n1cc(C2CC2)nn1 as the compound, how does the Potency read?
A: inconclusive [cytotoxic, single point]

Q: Which “activity, negative = less viability” value does the source give for CC(=O)NC12CC3CC(C1)CC(C(=O)OCC(=O)c1ccc4c(c1)OCCO4)(C3)C2 here?
A: inactive: -9.08%

Q: Which “activity, negative = less viability” value does the source give for CCC(C)NC(=O)c1ccccc1NC(=O)COc1ccc(OC)cc1 (stereo not drawn) here?
A: inactive: -6.76%

Q: Which Potency does the source give for CC(C)Oc1cccc(C(=O)C2CCCN(Cc3cccn3-c3ccccn3)C2)c1 (stereo not drawn) here?
A: active: 23.1 µM

Q: For C=CCNc1nc(NCCOC)c2sc(-c3ccccc3)cc2n1, which Potency is on record?
A: inconclusive [cytotoxic, single point]

Q: Which “activity, negative = less viability” value does the source give for CCNc1nc2c(c(=O)n(C)c(=O)n2C)n1CCCc1ccccc1 here?
A: inactive: -26.5%

Q: For COc1ccc(C(=O)Sc2ccc(Cl)cc2)cc1OC, which Potency is on record?
A: inconclusive [cytotoxic, single point]

Q: With O=C(N/N=C/c1ccc(Br)cc1)c1ccccc1-n1cccc1 as the compound, how does the Potency read?
A: inconclusive [cytotoxic, single point]

Q: Which Potency does the source give for Cc1ccccc1OCCn1cc(/C(N)=N/O)c2ccccc21 here?
A: inconclusive [cytotoxic, single point]

Q: Which Potency does the source give for CCOc1ccc(-c2n[nH]c(C)c2Oc2ccc(OC)cc2)c(O)c1 here?
A: inconclusive [cytotoxic, single point]

Q: Which “activity, negative = less viability” value does the source give for CCCSc1ccc([C@H]2N[C@@](C)(C(=O)OC)[C@H]3C(=O)N(C)C(=O)[C@@H]23)cc1 here?
A: inactive: 10.2%

Q: Which Potency does the source give for O=C(OC(C(=O)NC1CCCCC1)c1ccccc1F)c1ccco1 (stereo not drawn) here?
A: inconclusive [rising, partial curve, poor fit]

Q: With O=S(=O)(c1ccc(Cl)cc1)N1CCN(c2ccccn2)CC1 as the compound, how does the “activity, negative = less viability” value read?
A: inactive: -13.5%

Q: For C/C(Cn1nnc([N+](=O)[O-])n1)=N\NC(=O)c1ccc(O)cc1, which Potency is on record?
A: inconclusive [cytotoxic, single point]

Q: Which Potency does the source give for CCc1[nH]nc(C(=O)NC2CCCc3c2cnn3-c2cc(C)cc(C)c2)c1C (stereo not drawn) here?
A: inconclusive [cytotoxic, single point]

Q: Which Potency does the source give for O=C1/C(=C/c2ccccc2Cl)SC(=S)N1CCCC(=O)N(CCO)c1ccccc1 here?
A: inconclusive [cytotoxic, single point]

Q: Which Potency does the source give for COc1cc(/C=N/NC(=O)Cc2ccc(Br)cc2)cc(OC)c1O here?
A: inconclusive [cytotoxic, partial curve, poor fit]

Q: Which Potency does the source give for COc1ccc(CN2CCCC(C(=O)c3ccc(Cl)cc3)C2)cc1Cn1cccn1 (stereo not drawn) here?
A: inconclusive [cytotoxic, single point]

Q: With CN1CC(c2ccccn2)C2(SC(=S)N(Cc3ccccc3)C2=O)C12C(=O)Nc1ccccc12 (stereo not drawn) as the compound, how does the Potency read?
A: inconclusive [cytotoxic, single point]

Q: Which Potency does the source give for COc1ccccc1/C=C1\NC(=S)N(CC2CCCO2)C1=O (stereo not drawn) here?
A: inconclusive [cytotoxic, single point]

Q: For CC(=O)Nc1nc(CC(=O)c2ccccc2)cs1, which Potency is on record?
A: inconclusive [rising, single point]

Q: For COc1cccc([C@@H]2Oc3ccc(OC)cc3C(=O)[C@H]2O)c1, which Potency is on record?
A: inconclusive [cytotoxic, partial curve, poor fit]
